According to the supplement of paper PMC8728848:
This is one part of the list.

Assays:
Experiment in all cases: glycan array binding signal (z-score within array); higher = stronger binding
Settings in all cases: glycan notation: IUPAC condensed, linker removed
[1] = biological target: Fuc(a1-2)Gal6S(b1-3)GlcNAc6S
How it was run: (§1)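 Arrays were curated from the Consortium for Functional Glycomics database, 3228 in total, and kept only where the protein sequence was available. Binding is expressed as a within-array Z-score. This score was averaged across arrays of the same protein sequence at different concentrations or buffers and across linkers, and negative values can be read as non-binding.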

Fuc(a1-2)Gal6S(b1-4)Glc = biological target: Fuc(a1-2)Gal6S(b1-4)Glc
How it was run: as §1

[2] = biological target: Fuc(a1-2)Gal6S(b1-4)Glc6S
How it was run: as §1

Fuc(a1-2)[Gal(a1-3)]Gal = biological target: Fuc(a1-2)[Gal(a1-3)]Gal
How it was run: as §1

[3] = biological target: Fuc(a1-2)[Gal(a1-3)]Gal(b1-3)GalNAc
How it was run: as §1

[4] = biological target: Fuc(a1-2)[Gal(a1-3)]Gal(b1-3)GalNAc(b1-3)Gal(a1-4)Gal(b1-4)Glc
How it was run: as §1

[5] = biological target: Fuc(a1-2)[Gal(a1-3)]Gal(b1-3)GlcNAc
How it was run: as §1

[6] = biological target: Fuc(a1-2)[Gal(a1-3)]Gal(b1-3)GlcNAc(b1-2)Man(a1-3)[Fuc(a1-2)[Gal(a1-3)]Gal(b1-3)GlcNAc(b1-2)Man(a1-6)]Man(b1-4)GlcNAc(b1-4)GlcNAc
How it was run: as §1

[7] = biological target: Fuc(a1-2)[Gal(a1-3)]Gal(b1-3)GlcNAc(b1-2)Man(a1-3)[Fuc(a1-2)[Gal(a1-3)]Gal(b1-3)GlcNAc(b1-2)Man(a1-6)]Man(b1-4)GlcNAc(b1-4)[Fuc(a1-6)]GlcNAc
How it was run: as §1

[8] = biological target: Fuc(a1-2)[Gal(a1-3)]Gal(b1-3)GlcNAc(b1-3)GalNAc
How it was run: as §1

[9] = biological target: Fuc(a1-2)[Gal(a1-3)]Gal(b1-3)GlcNAc(b1-6)GalNAc
How it was run: as §1

[10] = biological target: Fuc(a1-2)[Gal(a1-3)]Gal(b1-4)Glc
How it was run: as §1

[11] = biological target: Fuc(a1-2)[Gal(a1-3)]Gal(b1-4)GlcNAc
How it was run: as §1

[12] = biological target: Fuc(a1-2)[Gal(a1-3)]Gal(b1-4)GlcNAc(b1-2)Man
How it was run: as §1

[13] = biological target: Fuc(a1-2)[Gal(a1-3)]Gal(b1-4)GlcNAc(b1-2)Man(a1-3)[Fuc(a1-2)[Gal(a1-3)]Gal(b1-4)GlcNAc(b1-2)Man(a1-6)]Man(b1-4)GlcNAc(b1-4)GlcNAc
How it was run: as §1

[14] = biological target: Fuc(a1-2)[Gal(a1-3)]Gal(b1-4)GlcNAc(b1-2)Man(a1-3)[Fuc(a1-2)[Gal(a1-3)]Gal(b1-4)GlcNAc(b1-2)Man(a1-6)]Man(b1-4)GlcNAc(b1-4)[Fuc(a1-6)]GlcNAc
How it was run: as §1

[15] = biological target: Fuc(a1-2)[Gal(a1-3)]Gal(b1-4)GlcNAc(b1-3)GalNAc
How it was run: as §1

[16] = biological target: Fuc(a1-2)[Gal(a1-3)]Gal(b1-4)GlcNAc(b1-3)[Fuc(a1-2)[Gal(a1-3)]Gal(b1-4)GlcNAc(b1-6)]GalNAc
How it was run: as §1

[17] = biological target: Fuc(a1-2)[Gal(a1-3)]Gal(b1-4)GlcNAc(b1-6)GalNAc
How it was run: as §1

[18] = biological target: Fuc(a1-2)[Gal(a1-3)]Gal(b1-4)[Fuc(a1-3)]Glc
How it was run: as §1

[19] = biological target: Fuc(a1-2)[Gal(a1-3)]Gal(b1-4)[Fuc(a1-3)]GlcNAc
How it was run: as §1

[20] = biological target: Fuc(a1-2)[Gal(a1-3)]Gal(b1-4)[Fuc(a1-3)]GlcNAc(b1-3)GalNAc
How it was run: as §1

[21] = biological target: Fuc(a1-2)[Gal(a1-4)]Gal(b1-4)GlcNAc
How it was run: as §1

[22] = biological target: Fuc(a1-2)[GalNAc(a1-3)]Gal
How it was run: as §1

[23] = biological target: Fuc(a1-2)[GalNAc(a1-3)]Gal(b1-3)GalNAc(a1-3)[Fuc(a1-2)]Gal(b1-4)GlcNAc
How it was run: as §1

[24] = biological target: Fuc(a1-2)[GalNAc(a1-3)]Gal(b1-3)GalNAc(b1-3)Gal(a1-4)Gal(b1-4)Glc
How it was run: as §1

[25] = biological target: Fuc(a1-2)[GalNAc(a1-3)]Gal(b1-3)GlcNAc
How it was run: as §1

[26] = biological target: Fuc(a1-2)[GalNAc(a1-3)]Gal(b1-3)GlcNAc(b1-2)Man(a1-3)[Fuc(a1-2)[GalNAc(a1-3)]Gal(b1-3)GlcNAc(b1-2)Man(a1-6)]Man(b1-4)GlcNAc(b1-4)GlcNAc
How it was run: as §1

[27] = biological target: Fuc(a1-2)[GalNAc(a1-3)]Gal(b1-3)GlcNAc(b1-2)Man(a1-3)[Fuc(a1-2)[GalNAc(a1-3)]Gal(b1-3)GlcNAc(b1-2)Man(a1-6)]Man(b1-4)GlcNAc(b1-4)[Fuc(a1-6)]GlcNAc
How it was run: as §1

[28] = biological target: Fuc(a1-2)[GalNAc(a1-3)]Gal(b1-3)GlcNAc(b1-3)GalNAc
How it was run: as §1

[29] = biological target: Fuc(a1-2)[GalNAc(a1-3)]Gal(b1-3)GlcNAc(b1-6)GalNAc
How it was run: as §1

[30] = biological target: Fuc(a1-2)[GalNAc(a1-3)]Gal(b1-4)Glc
How it was run: as §1

[31] = biological target: Fuc(a1-2)[GalNAc(a1-3)]Gal(b1-4)GlcNAc
How it was run: as §1

[32] = biological target: Fuc(a1-2)[GalNAc(a1-3)]Gal(b1-4)GlcNAc(b1-2)Man
How it was run: as §1

[33] = biological target: Fuc(a1-2)[GalNAc(a1-3)]Gal(b1-4)GlcNAc(b1-2)Man(a1-3)[Fuc(a1-2)[GalNAc(a1-3)]Gal(b1-4)GlcNAc(b1-2)Man(a1-6)]Man(b1-4)GlcNAc(b1-4)GlcNAc
How it was run: as §1

[34] = biological target: Fuc(a1-2)[GalNAc(a1-3)]Gal(b1-4)GlcNAc(b1-2)Man(a1-3)[Fuc(a1-2)[GalNAc(a1-3)]Gal(b1-4)GlcNAc(b1-2)Man(a1-6)]Man(b1-4)GlcNAc(b1-4)[Fuc(a1-6)]GlcNAc
How it was run: as §1

[35] = biological target: Fuc(a1-2)[GalNAc(a1-3)]Gal(b1-4)GlcNAc(b1-3)Gal(b1-4)GlcNAc
How it was run: as §1

[36] = biological target: Fuc(a1-2)[GalNAc(a1-3)]Gal(b1-4)GlcNAc(b1-3)Gal(b1-4)GlcNAc(b1-3)Gal(b1-4)GlcNAc
How it was run: as §1

[37] = biological target: Fuc(a1-2)[GalNAc(a1-3)]Gal(b1-4)GlcNAc(b1-3)GalNAc
How it was run: as §1

[38] = biological target: Fuc(a1-2)[GalNAc(a1-3)]Gal(b1-4)GlcNAc(b1-3)[Fuc(a1-2)[GalNAc(a1-3)]Gal(b1-4)GlcNAc(b1-6)]GalNAc
How it was run: as §1

[39] = biological target: Fuc(a1-2)[GalNAc(a1-3)]Gal(b1-4)GlcNAc(b1-6)GalNAc
How it was run: as §1

[40] = biological target: Fuc(a1-2)[GalNAc(a1-3)]Gal(b1-4)[Fuc(a1-3)]GlcNAc
How it was run: as §1

[41] = biological target: Fuc(a1-2)[GalNAc(a1-3)]Gal(b1-4)[Fuc(a1-3)]GlcNAc(b1-3)GalNAc
How it was run: as §1

[42] = biological target: Fuc(a1-2)[GalNAc(a1-4)]Gal(b1-4)GlcNAc
How it was run: as §1

[43] = biological target: Fuc(a1-2)[GalNAc(b1-3)]Gal
How it was run: as §1

B1: HPL (Tachypleus tridentatus) (protein)
chain: MEDDCTCVTDRSLEGKLMKHPSTPAVYQILDGCRRLVPNPPTYNNIYKNWECIQSNILEKLLCKCDSLSNGAELIKGSGDTVYLLSNGVKRPIADPETFNGFCFDWNKIKTYSDIVINSLSTGPIIIIKHHHHHH
In the case of B1, the “glycan array binding signal (z-score)” value [1] is reported as -0.334, the “glycan array binding signal (z-score)” value (Fuc(a1-2)Gal6S(b1-4)Glc) is reported as -0.084 and the “glycan array binding signal (z-score)” value [2] is reported as -0.222. The “glycan array binding signal (z-score)” value (Fuc(a1-2)[Gal(a1-3)]Gal) was -0.314, the “glycan array binding signal (z-score)” value [3] was -0.299 and the “glycan array binding signal (z-score)” value [4] was -0.302. For the same binder, the “glycan array binding signal (z-score)” value [5] was -0.238, the “glycan array binding signal (z-score)” value [6] was -0.163 and the “glycan array binding signal (z-score)” value [7] was 0.577. For the same binder, the “glycan array binding signal (z-score)” value [8] was -0.174, the “glycan array binding signal (z-score)” value [9] was 0.115 and the “glycan array binding signal (z-score)” value [10] was -0.003. The “glycan array binding signal (z-score)” value [11] was -0.384, the “glycan array binding signal (z-score)” value [12] was 0.07 and the “glycan array binding signal (z-score)” value [13] was 0.264. For the same binder, the “glycan array binding signal (z-score)” value [14] was 0.564, the “glycan array binding signal (z-score)” value [15] was -0.308 and the “glycan array binding signal (z-score)” value [16] was -0.082. The “glycan array binding signal (z-score)” value [17] was 1.39, the “glycan array binding signal (z-score)” value [18] was -0.275 and the “glycan array binding signal (z-score)” value [19] was -0.241. For the same binder, the “glycan array binding signal (z-score)” value [20] was -0.12, the “glycan array binding signal (z-score)” value [21] was -0.303 and the “glycan array binding signal (z-score)” value [22] was -0.411. The “glycan array binding signal (z-score)” value [23] was -0.395, the “glycan array binding signal (z-score)” value [24] was -0.096 and the “glycan array binding signal (z-score)” value [25] was -0.111. The “glycan array binding signal (z-score)” value [26] was 0.453, the “glycan array binding signal (z-score)” value [27] was 0.268 and the “glycan array binding signal (z-score)” value [28] was -0.144. For the same binder, the “glycan array binding signal (z-score)” value [29] was -0.159, the “glycan array binding signal (z-score)” value [30] was -0.297 and the “glycan array binding signal (z-score)” value [31] was -0.387. The “glycan array binding signal (z-score)” value [32] was -0.273, the “glycan array binding signal (z-score)” value [33] was -0.257 and the “glycan array binding signal (z-score)” value [34] was 0.104. The “glycan array binding signal (z-score)” value [35] was -0.321, the “glycan array binding signal (z-score)” value [36] was 0.144 and the “glycan array binding signal (z-score)” value [37] was -0.042. For the same binder, the “glycan array binding signal (z-score)” value [38] was -0.168, the “glycan array binding signal (z-score)” value [39] was -0.303 and the “glycan array binding signal (z-score)” value [40] was -0.19. The “glycan array binding signal (z-score)” value [41] was 0.139, the “glycan array binding signal (z-score)” value [42] was -0.434 and the “glycan array binding signal (z-score)” value [43] was -0.447.
